{
  "source": "paper PMC13288828",
  "binders": {"B1": {"name": "HA-TBK1 (enzyme, UniProt Q9UHD2 1-729)", "chain": "MQSTSNHLWLLSDILGQGATANVFRGRHKKTGDLFAIKVFNNISFLRPVDVQMREFEVLKKLNHKNIVKLFAIEEETTTRHKVLIMEFCPCGSLYTVLEEPSNAYGLPESEFLIVLRDVVGGMNHLRENGIVHRDIKPGNIMRVIGEDGQSVYKLTDFGAARELEDDEQFVSLYGTEEYLHPDMYERAVLRKDHQKKYGATVDLWSIGVTFYHAATGSLPFRPFEGPRRNKEVMYKIITGKPSGAISGVQKAENGPIDWSGDMPVSCSLSRGLQVLLTPVLANILEADQEKCWGFDQFFAETSDILHRMVIHVFSLQQMTAHKIYIHSYNTATIFHELVYKQTKIISSNQELIYEGRRLVLEPGRLAQHFPKTTEENPIFVVSREPLNTIGLIYEKISLPKVHPRYDLDGDASMAKAITGVVCYACRIASTLLLYQELMRKGIRWLIELIKDDYNETVHKKTEVVITLDFCIRNIEKTVKVYEKLMKINLEAAELGEISDIHTKLLRLSSSQGTIETSLQDIDSRLSPGGSLADAWAHQEGTHPKDRNVEKLQVLLNCMTEIYYQFKKDKAERRLAYNEEQIHKFDKQKLYYHATKAMTHFTDECVKKYEAFLNKSEEWIRKMLHLRKQLLSLTNQCFDIEEEVSKYQEYTNELQETLPQKMFTASSGIKHTMTPIYPSSNTLVEMTLGMKKLKEEMEGVVKELAENNHILERFGSLTMDGGLRNVDCL"}},
  "target": "T1, Flag-tagged IRF3 (Flag-IRF3) (UniProt Q14653)",
  "T1 sequence": "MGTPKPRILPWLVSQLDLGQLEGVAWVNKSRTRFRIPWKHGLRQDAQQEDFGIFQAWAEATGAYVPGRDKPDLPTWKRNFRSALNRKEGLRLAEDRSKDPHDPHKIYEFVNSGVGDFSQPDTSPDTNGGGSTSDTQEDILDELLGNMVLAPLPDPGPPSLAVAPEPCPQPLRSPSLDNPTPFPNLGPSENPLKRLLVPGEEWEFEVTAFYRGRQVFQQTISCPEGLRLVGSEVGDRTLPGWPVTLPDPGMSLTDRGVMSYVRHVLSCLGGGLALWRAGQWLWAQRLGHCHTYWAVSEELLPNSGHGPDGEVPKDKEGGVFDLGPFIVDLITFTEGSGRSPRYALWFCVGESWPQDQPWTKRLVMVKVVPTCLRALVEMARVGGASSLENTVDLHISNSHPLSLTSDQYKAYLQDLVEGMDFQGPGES",
  "experiment": "co-IP",
  "note": "These are yes or no findings as the source states them, for the method shown. Binding seen in cells or lysates may run through a third protein. Some binding calls cover weakened binding; strength is not graded here. Where a sequence is shown, tags or fusion partners need not be part of it.",
  "data": [
    {"binder": "B1", "values": [
      {"measurement": "binding", "value": "binds"}
    ]}
  ]
}
